The record followed here is publication PMC2757638 (Molecular cell, 2009).

Series [1] deals with the molecule itself. The experiment in a line: SEC.
Series [2] has as its target recombinant yeast histone H4 (S. cerevisiae, UniProt P02309). The experiment in a line: SEC.

B1: recombinant Cse4 point mutant L220A (natural protein)
chain: not shown
Take B1: the binding result in series [1] and in series [2] was “binds” in each case.

B2: recombinant Cse4 point mutant R210A (natural protein)
chain: not shown
Take B2: the binding result in series [1] and in series [2] was “binds” throughout.

B3: recombinant Cse4 point mutant H207A (natural protein)
chain: not shown
On to B3, for which the binding result in series [1] and in series [2] was “binds” in each case.

B4: recombinant Cse4 point mutant D217A (natural protein)
chain: not shown
With B4, the binding result in series [1] and in series [2] was “binds” each time.

B5: recombinant Cse4 point mutant T212A (natural protein)
chain: not shown
B5: the binding result in series [1] and in series [2] was “binds” in each case.
